In all, about 5,400 compounds went through this assay and about 190 (3.5%) showed an effect of 50% or more. Some of the results follow.

In the experiment the test system is Vero-E6. As to the kind of experiment: primary screen, phospholipidosis by LipidTOX staining; higher = more effect of the substance. Conditions: 10 µM. The procedure: To measure drug-induced PLD in Vero-E6 cells, we used the HCS LipidTOX Red Phospholipidosis Detection Reagent (Invitrogen, #H34351), which is non-toxic to cell growth and remains well retained after aldehyde fixation. In this setup, compounds (at 10 μM concentration) and controls (amiodarone: 10 μM concentration; DMSO: 0.1 v/v %) were added to clear-bottom, 384-well plates (PhenoPlate 384-well, black, optically clear flat bottom, tissue-culture treated, Revvity #6057302) using the Echo Liquid Handler (Labcyte).
For `C=C1/C(=C\C=C2/CCC[C@]3(C)[C@@H]([C@H](C)/C=C/C=C/C(O)(CC)CC)CC[C@@H]23)C[C@@H](O)C[C@@H]1O`, the result_ITMP was -2.42%.
The figure for `CN(C)CCOC1=Cc2ccccc2Sc2ccc(Cl)cc21` is 13.9%; for `C#C[C@]1(OC(=O)CCCCCC)CC[C@H]2[C@@H]3CCC4=CC(=O)CC[C@@H]4[C@H]3CC[C@@]21C` it is 3.23%.
As for `OC(CCN1CCCCC1)(c1ccccc1)C1CC2C=CC1C2` (centres unmarked), the result_ITMP was determined as 1.94%.
For `O=C(Cc1cccc(OC(F)(F)F)c1)Nc1ccc(CCCCc2nnc(NC(=O)Cc3ccccn3)s2)nn1`, the result_ITMP was -0.25%.
`CCN(CC)CC#CCOC(=O)C(O)(c1ccccc1)C1CCCCC1` (centres unmarked): the result_ITMP is on record as 24.9%.
As for `CC(=O)O/N=C1\C(=O)N(Cc2cc(Cl)ccc2Cl)c2ccc(Cl)cc21`, the result_ITMP was -8.17%.
Next, `CN1C2CCCC1CC(NC(=O)c1nn(C)c3ccccc13)C2` (centres unmarked): 5.63%; `Oc1cc2c(cc1O)[C@H]1c3ccccc3CN[C@@H]1CC2` (racemic): 3.51%; `N=C(N)c1cc2ccc(OC(=O)c3cccs3)cc2s1`: 6.82%.
Next, `CC(C)(C)NCC(O)COc1cc(Cl)ccc1Cl` (centres unmarked): 36.1%.
Next, `CC(=O)Nc1ccc(OC[C@](C)(O)C(=O)Nc2ccc([N+](=O)[O-])c(C(F)(F)F)c2)cc1`: 1.08%; `CN1c2ccccc2C(NCCCCCCC(=O)[O-])c2ccc(Cl)cc2S1(=O)=O` (centres unmarked): -11.6%; `CC(C)C[C@H](NC(=O)[C@H](CCCCN)NC(=O)[C@H](CCCNC(=N)N)NC(=O)[C@H](C)NC(=O)[C@H](CO)NC(=O)[C@H](CCCCN)NC(=O)[C@H](CCCNC(=N)N)NC(=O)[C@H](C)NC(=O)CNC(=O)[C@@H](NC(=O)[C@H](Cc1ccccc1)NC(=O)CNC(=O)CNC(=O)[C@@H](N)Cc1ccccc1)[C@@H](C)O)C(=O)N[C@@H](C)C(=O)N[C@@H](CC(N)=O)C(=O)N[C@@H](CCC(N)=O)C(=O)O`: -0.22%.
On to `Cc1ccc2c(-c3ccccc3)nc(=O)n(C(C)C)c2c1`, for which the result_ITMP is recorded as 3%.
Consider `COc1cccc(OC)c1-c1cc(C(=O)NC2(C(=O)O)C3CC4CC(C3)CC2C4)nn1-c1ccnc2cc(Cl)ccc12` (centres unmarked), for which the result_ITMP is reported as -10.3%.
As to `CC(C)[C@H](N)C(=O)OCCOCn1cnc2c(=O)[nH]c(N)nc21`, the result_ITMP is recorded as 4.32%.
For the compound `CN(NC(=O)CC(=O)NN(C)C(=S)c1ccccc1)C(=S)c1ccccc1`, the result_ITMP was -1.56%.
Regarding `C[C@]12N[C@H](Cc3ccccc31)c1ccccc12`, the result_ITMP amounted to 2.5%.
With `O=C(O)C[C@H]1CC[C@H](c2ccc(NC(=O)c3nnc(Nc4ccc(F)c(F)c4)o3)cc2)CC1`, the result_ITMP is on record as 1.42%.
In the case of `O=C1c2ccccc2-n2c1nc1ccccc1c2=O`, the result_ITMP is on record as -1.15%.
As to `CC(C)(C)[C@]1(O)C[C@@H]2OC(=O)C[C@@]23C(=O)O[C@@H]2OC(=O)[C@H](O)C213` (some centres unmarked), the result_ITMP is listed as -3.55%.
On to `Cc1c(F)cc(C(=O)NC2CC2)cc1-c1c(F)cn2c(C(C)(C)C)nnc2c1F`, for which the result_ITMP is given as -4.18%.
For the compound `CC(=O)O[C@H]1CC[C@@]2(C)C(=CC[C@@H]3[C@@H]2CC[C@]2(C)C(c4cccnc4)=CC[C@@H]32)C1`, the result_ITMP worked out at 2.09%.
The figure for `O=[N+]([O-])c1ccccc1S(=O)(=O)NC[C@H]1CC[C@H](CNCC2CCc3ccccc3C2)CC1` (some centres unmarked) is 47.2%; for `NCCc1ccccn1` it is -5.68%.
In the case of `CC[C@H](NC(C)C)[C@H](O)c1ccc(O)c2[nH]c(=O)ccc12` (racemic), the result_ITMP was -0.93%.
For the compound `CC(C)c1ccc(C(=O)NC(=N)N)cc1S(C)(=O)=O`, the result_ITMP was -2.54%.
For `CCN(CC)C(C)C(=O)c1ccccc1` (centres unmarked), the result_ITMP was -5.15%.
The figure for `COc1ccc(-c2c(C)c(C(=O)NN3CCCCC3)nn2-c2ccc(Cl)cc2Cl)cc1` is -8.49%; for `CCC1=C[C@@H]2C[N@@]3CCc4c([nH]c5ccccc45)[C@@](C(=O)OC)(C2)[C@@H]13` it is 6.61%; for `CN(C)CCC[C@@]1(c2ccc(F)cc2)OCc2cc(C#N)ccc21` it is 2.98%.
In the case of `COc1ccc(C(=O)N2CCCc3cc(C4=NNC(=O)SC4C)ccc32)cc1OC` (centres unmarked), the result_ITMP came out at 1.03%.
For the compound `FC(F)(F)C(F)(F)C(F)(F)C(F)(F)C(F)(F)C(F)(F)C(F)(F)C(F)(F)Br`, the result_ITMP was -4.5%.
Consider `O=C(CNC(=O)c1ccc(Cl)cc1)NO`, for which the result_ITMP stood at 10.2%.
For the compound `CN1CCCC(n2nc(Cc3ccc(Cl)cc3)c3ccccc3c2=O)CC1` (centres unmarked), the result_ITMP came out at 57.2%.
As for `O=c1oc(-c2ccc(C(F)(F)F)cc2)nn1Cc1cc(Cl)ccc1O`, the result_ITMP was -3.61%.
Consider `COc1ccc(S(=O)(=O)N2c3ccc(Cl)cc3[C@](O)(c3ccccc3Cl)[C@@H]2C(=O)N2CCC[C@H]2C(N)=O)cc1OC`, for which the result_ITMP is on record as -3.08%.
The figure for `C[N+](C)(CF)CCO` is -5.63%.
Consider `O=C1CCCN1CC#CCN1CCCC1`, for which the result_ITMP is 0.42%.
On to `CCN(CC)CCOc1ccc(/C(=C(\Cl)c2ccccc2)c2ccccc2)cc1`, for which the result_ITMP turned out to be 108%.
Regarding `O=S(=O)(c1ccccc1)c1cnc2c(N3CCNCC3)cccc2c1`, the result_ITMP is 39.6%.
Next, `COc1ccc(-n2c(C)c([N+](=O)[O-])c3ccc(O)cc32)cc1`: -8.94%; `CC(C)C[C@H](NC(=O)[C@H](CCc1ccccc1)NC(=O)CN1CCOCC1)C(=O)N[C@@H](Cc1ccccc1)C(=O)N[C@@H](CC(C)C)C(=O)[C@@]1(C)CO1`: 2.11%; `CCc1cncnc1N1CCN(Cc2nc3cc(C(F)(F)F)ccc3[nH]2)CC1`: -0.72%.
Take `COc1ccc(C2(CNC(=O)c3ccc(NC(=O)c4ccco4)cc3)CCOCC2)cc1`: the result_ITMP is given as -3.05%.
Consider `Cc1c(C(=O)NC2CCCCC2)sc2nc3ccc(N)cc3n12`, for which the result_ITMP was -5.2%.
For `NC(=O)N/N=C/c1ccc([N+](=O)[O-])o1`, the result_ITMP is -3.1%.
As to `O=C(O[C@H]1CN2CCC1CC2)N1CCc2ccccc2[C@@H]1c1ccccc1`, the result_ITMP stood at 59.2%.
Turning to `CCOC(=O)c1ccc(OCCC2CCN(c3ccc(C)nn3)CC2)cc1`, the result_ITMP is -2.25%.
With `N=C(N)NC(=N)N1CCOCC1`, the result_ITMP was -6.56%.
With `C[C@H]1CN(Cc2ccc(CC(=O)N3CCC(Nc4cccc(F)c4)CC3)cc2)CCN1`, the result_ITMP is -0.99%.
`O=C(O)[C@H](Cc1ccc(Nc2nccc3ccncc23)cc1)NC1=C(Br)C(=O)C12CCCCC2`: the result_ITMP is on record as -1.64%.

Values taken from article PMC13083723 (Patterns, 2026).
